Among all 310,000 compounds or so, about 2,200 (0.71%) showed an effect of 50% or more. Effects have a minus sign here. This is one part of the list.

The target of the assay is human ether-à-go-go-related gene (hERG) potassium channel (human, UniProt Q12809). Nature of the assay: primary screen, population patch clamp on CHO cells stably expressing hERG.
Chain of human ether-à-go-go-related gene (hERG) potassium channel (Q12809 whole entry, looked up): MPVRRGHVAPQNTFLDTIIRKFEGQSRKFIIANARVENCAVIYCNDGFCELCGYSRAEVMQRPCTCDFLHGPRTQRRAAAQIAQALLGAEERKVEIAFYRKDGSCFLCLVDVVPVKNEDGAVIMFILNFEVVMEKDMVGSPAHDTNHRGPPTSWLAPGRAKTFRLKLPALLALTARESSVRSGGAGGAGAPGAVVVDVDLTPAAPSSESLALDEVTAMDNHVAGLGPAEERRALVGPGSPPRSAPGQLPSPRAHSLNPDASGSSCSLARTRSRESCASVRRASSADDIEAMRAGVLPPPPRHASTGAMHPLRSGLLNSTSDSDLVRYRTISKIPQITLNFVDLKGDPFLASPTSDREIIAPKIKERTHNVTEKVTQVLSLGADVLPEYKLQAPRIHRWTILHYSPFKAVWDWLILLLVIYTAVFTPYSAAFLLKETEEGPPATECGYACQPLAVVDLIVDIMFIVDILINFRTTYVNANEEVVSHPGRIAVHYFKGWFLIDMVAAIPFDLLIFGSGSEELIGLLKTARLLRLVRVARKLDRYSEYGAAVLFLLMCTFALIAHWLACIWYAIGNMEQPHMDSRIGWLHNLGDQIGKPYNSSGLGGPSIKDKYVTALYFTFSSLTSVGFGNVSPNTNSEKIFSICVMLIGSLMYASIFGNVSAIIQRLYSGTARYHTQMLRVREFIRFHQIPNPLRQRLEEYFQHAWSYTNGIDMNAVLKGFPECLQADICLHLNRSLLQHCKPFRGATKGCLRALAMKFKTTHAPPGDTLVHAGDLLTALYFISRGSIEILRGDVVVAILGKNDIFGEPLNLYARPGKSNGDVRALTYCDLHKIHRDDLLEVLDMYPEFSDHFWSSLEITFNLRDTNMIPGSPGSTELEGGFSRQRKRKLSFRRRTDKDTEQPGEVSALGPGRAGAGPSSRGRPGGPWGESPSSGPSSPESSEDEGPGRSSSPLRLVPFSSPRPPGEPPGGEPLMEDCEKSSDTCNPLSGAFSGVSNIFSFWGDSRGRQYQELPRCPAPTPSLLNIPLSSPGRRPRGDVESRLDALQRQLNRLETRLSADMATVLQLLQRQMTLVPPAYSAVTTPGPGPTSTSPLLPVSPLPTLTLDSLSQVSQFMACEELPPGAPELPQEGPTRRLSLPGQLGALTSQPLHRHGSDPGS
As to `COc1ccc(COC(=O)c2cccc(S(=O)(=O)N3CCN(C(C)=O)CC3)c2)cc1F`, the “hERG current change (%, negative = inhibition) at 1uM” value stood at 10.7%.

Take `Cc1cc(C=C2C(=O)N(C)C(=S)N(C)C2=O)c(C)n1-c1ccncc1`: the “hERG current change (%, negative = inhibition) at 1uM” value is 11.3%.

With `S=c1nc(-c2cccc(Br)c2)[nH][nH]1`, the “hERG current change (%, negative = inhibition) at 1uM” value is recorded as 11.2%. In the case of `CCCS(=O)(=O)N1CCN(C(=O)c2ccccc2F)CC1`, the “hERG current change (%, negative = inhibition) at 1uM” value is recorded as 0.177%. Regarding `COc1cc(C(=O)NNC(=O)COc2ccccc2Cl)ccc1OCC(=O)N1CCOCC1`, the “hERG current change (%, negative = inhibition) at 1uM” value amounted to 6.06%. In the case of `CC(C)COc1cc(=O)[nH]c(SCC(C)C)n1`, the “hERG current change (%, negative = inhibition) at 1uM” value is -1.08%. Turning to `CC(=O)N/N=c1\sc2ccccc2n1C`, the “hERG current change (%, negative = inhibition) at 1uM” value was 9.01%. As for `C=CCNC(=O)CSc1nc2sc3c(c2c(=O)n1CCC)CCC3`, the “hERG current change (%, negative = inhibition) at 1uM” value is reported as 18.7%. As for `O=C(Nc1ccc(S(=O)(=O)N2CCOCC2)cc1)c1ccc(Br)o1`, the “hERG current change (%, negative = inhibition) at 1uM” value is listed as -25.9%.

Regarding `COc1ccccc1N1CCN(C/C(O)=C(\C#N)c2nc(-c3ccccc3)cs2)CC1`, the “hERG current change (%, negative = inhibition) at 1uM” value was 19.5%. For `CCC(=O)Nc1c(-c2ccccc2Cl)c(=O)c2ccccc2n1C`, the “hERG current change (%, negative = inhibition) at 1uM” value is 14.4%. `Cc1nn(Cc2ccccc2)c(C)c1CCC(=O)O`: the “hERG current change (%, negative = inhibition) at 1uM” value is recorded as 2.37%.

With `COC(=O)CCC(=O)OC1(C)C(=O)C=C2C=C(C3CC3)N(CCCCO)C=C2C1=O` (stereo not shown), the “hERG current change (%, negative = inhibition) at 1uM” value worked out at 8.61%. On to `COc1cccc(OC)c1C(=O)Nc1nnc(-c2ccc(F)cc2)s1`, for which the “hERG current change (%, negative = inhibition) at 1uM” value amounted to 9.13%. In the case of `Cc1cccc(C)c1OCc1nnc(SCC(=O)Nc2ccccc2F)o1`, the “hERG current change (%, negative = inhibition) at 1uM” value was found to be 12.3%. Next, `O=C(NCC1COc2ccccc2O1)c1ccc(Br)s1` (stereo not shown): 13.9%; `COc1cccc(C2/C(=C(\O)c3ccc4c(c3)OCCO4)C(=O)C(=O)N2CC2CCCO2)c1` (stereo not shown): 1.12%; `S=c1[nH]nc(COc2ccccc2)n1/N=C/c1cccc(Br)c1`: 10.3%. As to `O=S(=O)(Nc1ccc2[nH]ncc2c1)c1ccccc1Cl`, the “hERG current change (%, negative = inhibition) at 1uM” value was 17.5%. Next, `Cc1c(OCc2nn[nH]n2)ccc2c(-c3ccccc3)cc(=O)oc12`: 10.3%. Next, `O=C(O)C1CC(=O)N(c2ccc(OCc3ccc(Br)cc3)cc2)C1` (stereo not shown): 10.5%. Consider `O=C(CSc1nnnn1-c1ccc(Cl)cc1)NC(=O)Nc1ccc2c(c1)OCCO2`, for which the “hERG current change (%, negative = inhibition) at 1uM” value was found to be 8.09%.

Regarding `O=C(Nc1ccncc1)Nc1ccc(F)cc1`, the “hERG current change (%, negative = inhibition) at 1uM” value was 14.2%. Next, `COc1ccccc1N1CCN(CC(O)COc2ccc3c(c2)CCC3)CC1.Cl` (stereo not shown): -37.5%; `Cc1ccc(C)c(NC(=O)c2cccc(Oc3ccc([N+](=O)[O-])cc3Cl)c2)c1`: -13.9%.

`COC(=O)/C=C1/SC(=Nc2ccc(C)cc2C)NC1=O`: the “hERG current change (%, negative = inhibition) at 1uM” value was 6.86%. Next, `O=C(NC1CCSc2ccccc21)c1ccccc1Br` (stereo not shown): 6.64%; `COc1cccc(N(CC(=O)NC(C)(C)C)C(=O)C2CSC(=O)C2)c1` (stereo not shown): -1.07%.

As to `CNS(=O)(=O)c1cccc(C(=O)OCC(=O)N2CCCC2)c1`, the “hERG current change (%, negative = inhibition) at 1uM” value was 12.6%. In the case of `O=[N+]([O-])c1ccc(N2CCCC2)cc1NCc1ccccc1`, the “hERG current change (%, negative = inhibition) at 1uM” value was found to be 11.4%. Next, `NC(=O)NC(=O)c1nccnc1C(=O)O`: 12%. For the molecule `CCOC(=O)CC1=C(C(=O)OCC)C(c2ccc(C)o2)C(C#N)=C(N)O1` (stereo not shown), the “hERG current change (%, negative = inhibition) at 1uM” value was determined as 6.83%.

For the molecule `CCN1C(=O)[C@H]2[C@@H](c3ccc(Cl)cc3)N3C(=O)CN(CCOC)C(=O)[C@@]3(C)[C@H]2C1=O`, the “hERG current change (%, negative = inhibition) at 1uM” value came out at 5.13%.

For the molecule `CCOc1ccc(Cc2c(O)[nH]c(=O)[nH]c2=O)cc1`, the “hERG current change (%, negative = inhibition) at 1uM” value was found to be 16.7%. Regarding `O=C(CCn1cnnn1)Nc1ccccc1`, the “hERG current change (%, negative = inhibition) at 1uM” value was found to be 10.7%.

As to `CN(C)S(=O)(=O)n1cc(/C=C(\NC(=O)c2ccccc2)C(=O)NCCN2CCOCC2)c2ccccc21`, the “hERG current change (%, negative = inhibition) at 1uM” value worked out at 8.99%. Next, `Nn1c(SCc2cc([N+](=O)[O-])cc3c2OCOC3)nnc1-c1cccnc1`: 9.15%; `Cn1c(SCC(=O)NC2CCCC2)nc2cccnc21`: 10.4%; `CC1Cc2ccccc2N1C(=O)CN(C)CC(=O)Nc1cccc(F)c1` (stereo not shown): -2.26%.

Regarding `COc1ccc(-c2ccc(SC)nn2)cc1`, the “hERG current change (%, negative = inhibition) at 1uM” value was 7.64%. `O=S(=O)(c1ccc(Nc2ccc3c(c2)OCO3)nc1)N1CCOCC1`: the “hERG current change (%, negative = inhibition) at 1uM” value worked out at 2.17%.

In the case of `NC(=O)[C@@H]1CCCNc2c(I)cc([N+](=O)[O-])cc2C(=O)N[C@@H](CO)C(=O)NCC(=O)N1`, the “hERG current change (%, negative = inhibition) at 1uM” value worked out at 0.355%. On to `Nc1ccccc1O`, for which the “hERG current change (%, negative = inhibition) at 1uM” value is reported as 15.1%. As to `CCN(CC(=O)Nc1c(F)cccc1F)C(=O)c1ccc(C(F)(F)F)cc1`, the “hERG current change (%, negative = inhibition) at 1uM” value is reported as 7.87%. As to `Cc1ccc(C(=O)NCCCCNC(=O)c2ccc(C)o2)o1`, the “hERG current change (%, negative = inhibition) at 1uM” value is -3.41%. Next, `S=c1[nH]nc(-c2ccco2)n1/N=C/c1ccc(Br)s1`: -4.5%; `COc1ccc(N(CC(=O)NC2CC3CCC2C3)S(=O)(=O)c2ccccc2)cc1OC` (stereo not shown): 14.1%; `CCOC(=O)C1(Cc2ccccc2C)CCCN(C(=O)c2cc(C3CC3)[nH]n2)C1` (stereo not shown): 7.4%. With `CCN(CC(=O)Nc1ccc(OC)cc1)CC(=O)N1CC(=O)Nc2ccccc21`, the “hERG current change (%, negative = inhibition) at 1uM” value is reported as 7.12%. Consider `Nc1nnc(Sc2ncccc2[N+](=O)[O-])s1`, for which the “hERG current change (%, negative = inhibition) at 1uM” value is reported as 3.07%. Regarding `CSCCC(NC(N)=O)C(=O)Nc1cccc(S(=O)(=O)N2CCOCC2)c1` (stereo not shown), the “hERG current change (%, negative = inhibition) at 1uM” value came out at 15.3%.

For the molecule `CCOC(=O)C1CCCN(S(=O)(=O)c2ccc(S(=O)(=O)N3CCCC3)cc2)C1` (stereo not shown), the “hERG current change (%, negative = inhibition) at 1uM” value was 10.1%. Turning to `COc1ccc(CNC(=O)c2cc3c(s2)CN(Cc2ccccc2)C3)cc1.Cl`, the “hERG current change (%, negative = inhibition) at 1uM” value stood at 5.84%.

As for `CC(=O)N(Nc1ccccc1)c1ccccc1`, the “hERG current change (%, negative = inhibition) at 1uM” value stood at 15.3%. As for `O=C(Nc1cccnc1)c1ccc(F)cc1`, the “hERG current change (%, negative = inhibition) at 1uM” value came to 10.6%. Next, `CCOC(=O)N1CCN(C(=O)c2ccc(N(Cc3ccccc3)S(C)(=O)=O)cc2)CC1`: 7.98%. As to `CCOC(=O)C1CCCN(C(=O)c2cc3nc(-c4ccc5c(c4)OCO5)cc(C(F)(F)F)n3n2)C1` (stereo not shown), the “hERG current change (%, negative = inhibition) at 1uM” value came out at 7.17%. With `Cc1nc(C)c(CC(=O)N2CCc3c([nH]c4ccccc34)C2c2ccccn2)s1` (stereo not shown), the “hERG current change (%, negative = inhibition) at 1uM” value is 12.3%.

These data come from PMC4336329 (PLoS ONE, 2015).
